In one experiment the target is T1, Myc-SNAPIN (human) (UniProt O95295).
T1 sequence: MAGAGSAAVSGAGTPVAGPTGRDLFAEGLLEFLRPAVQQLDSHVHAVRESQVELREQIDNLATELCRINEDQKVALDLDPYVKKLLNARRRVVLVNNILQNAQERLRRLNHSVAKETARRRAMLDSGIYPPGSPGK
The experiment can be described thus: co-IP.

The chains behind the UniProt entries cited, without tags or fusion partners. Residues count along the entry.
UniProt P05777: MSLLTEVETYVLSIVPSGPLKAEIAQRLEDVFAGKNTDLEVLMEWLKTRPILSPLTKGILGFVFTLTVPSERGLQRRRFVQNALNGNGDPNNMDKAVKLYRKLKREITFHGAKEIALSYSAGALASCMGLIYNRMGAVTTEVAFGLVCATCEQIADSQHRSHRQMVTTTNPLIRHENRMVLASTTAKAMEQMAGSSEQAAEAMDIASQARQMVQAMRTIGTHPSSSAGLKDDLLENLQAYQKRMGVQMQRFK
UniProt P05780: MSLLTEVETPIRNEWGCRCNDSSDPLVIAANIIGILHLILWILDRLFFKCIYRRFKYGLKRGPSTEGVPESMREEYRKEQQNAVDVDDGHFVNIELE
UniProt P03430: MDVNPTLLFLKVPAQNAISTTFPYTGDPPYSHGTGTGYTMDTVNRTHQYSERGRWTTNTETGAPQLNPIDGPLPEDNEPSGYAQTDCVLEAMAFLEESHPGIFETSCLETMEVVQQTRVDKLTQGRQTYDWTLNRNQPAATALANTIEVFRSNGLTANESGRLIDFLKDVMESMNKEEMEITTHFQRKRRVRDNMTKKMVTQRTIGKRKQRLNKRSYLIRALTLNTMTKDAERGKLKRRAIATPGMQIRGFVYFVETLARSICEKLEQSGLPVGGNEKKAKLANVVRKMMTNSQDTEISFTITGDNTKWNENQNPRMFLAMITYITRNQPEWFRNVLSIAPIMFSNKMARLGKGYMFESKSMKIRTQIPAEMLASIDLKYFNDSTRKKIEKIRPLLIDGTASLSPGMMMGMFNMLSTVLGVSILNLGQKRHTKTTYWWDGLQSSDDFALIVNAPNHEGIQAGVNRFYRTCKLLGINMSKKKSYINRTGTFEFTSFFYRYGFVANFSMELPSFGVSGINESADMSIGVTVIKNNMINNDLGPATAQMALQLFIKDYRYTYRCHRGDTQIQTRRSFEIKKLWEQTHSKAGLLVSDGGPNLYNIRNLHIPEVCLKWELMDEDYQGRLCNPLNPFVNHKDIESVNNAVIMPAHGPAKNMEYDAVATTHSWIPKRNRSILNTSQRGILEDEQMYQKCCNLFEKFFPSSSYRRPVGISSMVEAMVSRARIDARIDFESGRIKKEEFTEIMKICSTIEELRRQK
UniProt P15682: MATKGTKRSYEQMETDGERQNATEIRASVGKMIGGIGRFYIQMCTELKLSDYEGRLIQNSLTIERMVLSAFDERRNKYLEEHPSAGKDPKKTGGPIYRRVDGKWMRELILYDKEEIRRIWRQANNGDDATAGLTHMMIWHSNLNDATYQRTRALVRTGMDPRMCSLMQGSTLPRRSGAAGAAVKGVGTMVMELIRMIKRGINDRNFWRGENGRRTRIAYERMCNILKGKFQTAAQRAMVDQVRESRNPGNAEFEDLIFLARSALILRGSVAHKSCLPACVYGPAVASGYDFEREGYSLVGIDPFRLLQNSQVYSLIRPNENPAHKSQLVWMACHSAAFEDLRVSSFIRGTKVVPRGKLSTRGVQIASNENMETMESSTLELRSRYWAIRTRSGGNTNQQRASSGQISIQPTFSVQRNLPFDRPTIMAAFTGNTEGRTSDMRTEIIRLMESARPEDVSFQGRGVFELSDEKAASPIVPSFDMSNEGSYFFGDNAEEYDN
UniProt P03470: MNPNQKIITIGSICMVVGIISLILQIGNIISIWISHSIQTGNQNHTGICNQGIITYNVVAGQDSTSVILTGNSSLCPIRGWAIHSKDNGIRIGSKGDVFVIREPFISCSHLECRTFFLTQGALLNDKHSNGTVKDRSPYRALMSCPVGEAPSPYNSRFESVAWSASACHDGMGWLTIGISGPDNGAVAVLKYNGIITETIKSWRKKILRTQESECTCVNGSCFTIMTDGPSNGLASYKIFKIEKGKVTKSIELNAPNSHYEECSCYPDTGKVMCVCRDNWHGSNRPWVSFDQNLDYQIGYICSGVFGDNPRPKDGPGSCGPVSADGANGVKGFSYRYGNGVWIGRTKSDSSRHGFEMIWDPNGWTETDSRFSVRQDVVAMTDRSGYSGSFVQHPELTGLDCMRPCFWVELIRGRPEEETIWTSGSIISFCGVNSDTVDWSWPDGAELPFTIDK
UniProt P03454, residues 18-565: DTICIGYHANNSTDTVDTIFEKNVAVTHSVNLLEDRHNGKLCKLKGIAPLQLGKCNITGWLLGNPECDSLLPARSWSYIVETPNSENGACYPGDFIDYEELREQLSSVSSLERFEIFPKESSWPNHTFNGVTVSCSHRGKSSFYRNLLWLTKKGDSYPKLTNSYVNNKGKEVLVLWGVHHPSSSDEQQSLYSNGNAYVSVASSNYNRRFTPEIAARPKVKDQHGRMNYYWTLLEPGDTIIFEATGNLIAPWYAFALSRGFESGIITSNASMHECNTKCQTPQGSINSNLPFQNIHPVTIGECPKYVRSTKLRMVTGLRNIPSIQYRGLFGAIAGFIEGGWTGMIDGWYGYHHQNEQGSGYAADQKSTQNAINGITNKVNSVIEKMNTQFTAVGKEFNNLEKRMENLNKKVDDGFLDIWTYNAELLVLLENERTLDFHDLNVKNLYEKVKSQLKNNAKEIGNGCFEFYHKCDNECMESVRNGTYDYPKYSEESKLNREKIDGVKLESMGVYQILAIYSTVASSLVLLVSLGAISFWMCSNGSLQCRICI
UniProt P03427: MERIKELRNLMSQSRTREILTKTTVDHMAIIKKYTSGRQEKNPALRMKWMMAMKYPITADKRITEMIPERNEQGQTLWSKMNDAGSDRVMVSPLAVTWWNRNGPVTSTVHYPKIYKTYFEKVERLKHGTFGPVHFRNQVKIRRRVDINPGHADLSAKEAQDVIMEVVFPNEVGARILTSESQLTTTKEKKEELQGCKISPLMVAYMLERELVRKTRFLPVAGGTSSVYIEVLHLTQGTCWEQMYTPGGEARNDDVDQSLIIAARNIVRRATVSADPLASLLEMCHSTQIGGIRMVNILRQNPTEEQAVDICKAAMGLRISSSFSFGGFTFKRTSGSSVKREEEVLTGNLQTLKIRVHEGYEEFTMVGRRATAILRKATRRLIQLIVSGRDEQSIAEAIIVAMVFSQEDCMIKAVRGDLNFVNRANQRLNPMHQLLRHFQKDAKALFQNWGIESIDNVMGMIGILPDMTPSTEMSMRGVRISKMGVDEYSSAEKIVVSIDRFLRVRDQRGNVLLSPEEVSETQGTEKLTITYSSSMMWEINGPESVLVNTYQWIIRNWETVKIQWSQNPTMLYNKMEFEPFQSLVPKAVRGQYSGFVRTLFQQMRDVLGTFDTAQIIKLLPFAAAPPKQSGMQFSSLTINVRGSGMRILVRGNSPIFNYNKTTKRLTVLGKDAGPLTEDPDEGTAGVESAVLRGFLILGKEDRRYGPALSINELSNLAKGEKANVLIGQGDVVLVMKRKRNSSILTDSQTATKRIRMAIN

For another experiment, the target named is T2, Flag-SNAPIN (human) (UniProt O95295).
T2 sequence: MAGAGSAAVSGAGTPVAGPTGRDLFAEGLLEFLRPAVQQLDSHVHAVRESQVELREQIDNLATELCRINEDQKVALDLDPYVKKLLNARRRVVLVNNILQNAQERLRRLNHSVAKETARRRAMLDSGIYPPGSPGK
The experiment can be described thus: co-IP.

In another experiment the target is T3, SmN-SNAPIN (human) (UniProt O95295).
T3 sequence: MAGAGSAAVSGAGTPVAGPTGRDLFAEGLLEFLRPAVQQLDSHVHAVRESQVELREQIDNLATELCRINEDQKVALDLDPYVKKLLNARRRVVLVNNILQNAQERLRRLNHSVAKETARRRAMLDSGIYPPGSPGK
The experiment can be described thus: split reporter.

The target in experiment [1] is Flag-M1 (influenza A virus A/WSN/33 (H1N1)) (UniProt P05777). The experiment can be described thus: co-IP.

In paper PMC12730228, “Targeted NanoBiT Screening Identifies a Novel Interaction Between SNAPIN and Influenza A Virus M1 Protein” (Biology, 2025) one finds binding data, which are given here for nine molecules.

Results are given in words; binding and its absence hold for the method and conditions named. In cells and extracts the contact can be indirect. Some results given as binding are weak or reduced against the parent protein; the word gives no strength. For part of these data: Sequences can lack the tags named with a protein.

In the case of Flag-M1 (from UniProt P05777 1-252), in the experiment with Myc-SNAPIN (human), the binding entry is “binds”.

For the molecule “M2 protein of WSN virus in infected cells (from UniProt P05780 1-97)”, the binding result in the experiment with Flag-SNAPIN (human) is reported as “binds”.

As to LgN-PB1 (from UniProt P03430 1-757), the binding result with SmN-SNAPIN (human) is reported as “no binding”.

As for LgN-NP (from UniProt P15682 1-498), the binding entry in the experiment with SmN-SNAPIN (human) is reported as “no binding”.

As to “M1 protein of WSN virus in infected cells (from UniProt P05777 1-252)”, the binding entry with Flag-SNAPIN (human) is listed as “binds”.

Regarding LgN-NA (from UniProt P03470 1-453), the binding result with SmN-SNAPIN (human) is “no binding”.

LgN-HA (from UniProt P03454): in the experiment with SmN-SNAPIN (human), the binding entry is “no binding”.

As for LgN-PB2 (from UniProt P03427 1-759), the binding result with SmN-SNAPIN (human) was “no binding”.

B1: GST-SNAPIN (natural protein, human, UniProt O95295 1-136, looked up)
chain: MAGAGSAAVSGAGTPVAGPTGRDLFAEGLLEFLRPAVQQLDSHVHAVRESQVELREQIDNLATELCRINEDQKVALDLDPYVKKLLNARRRVVLVNNILQNAQERLRRLNHSVAKETARRRAMLDSGIYPPGSPGK
notes: also called GST-tagged SNAPIN
For the molecule B1, the binding entry in experiment [1] is reported as “binds”.
